The results in this text go back to patent US12338291B2, “Humanized antibody molecules to CD138 and uses thereof” (VISTERRA, INC., priority 2019, dated 2025).

The subject of one data set is CD138+ myeloma cells. In words: Binding to CD138+ myeloma cells (general statement).
For data set [1], the target named is T1, membrane CD138 on U266 cells (Homo sapiens, UniProt P18827).
T1 construct: endogenous in cells; host or cells: U266 human lymphoblastic myeloma cell line
T1 sequence (P18827 23-310): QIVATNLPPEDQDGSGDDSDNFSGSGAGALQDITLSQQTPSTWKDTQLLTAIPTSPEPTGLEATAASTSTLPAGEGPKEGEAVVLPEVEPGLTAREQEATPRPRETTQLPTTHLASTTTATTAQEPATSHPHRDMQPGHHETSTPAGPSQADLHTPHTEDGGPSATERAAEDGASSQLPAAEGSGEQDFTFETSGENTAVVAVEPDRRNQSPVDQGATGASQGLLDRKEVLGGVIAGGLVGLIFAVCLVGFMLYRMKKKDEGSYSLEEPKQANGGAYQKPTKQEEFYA
In words: Antibody binding to membrane CD138 on U266 cells by flow cytometry. The settings on record: FIG. 9A, mAb 4320 vs BB4. The method, then: (§1) In one experiment, the humanized variants of monoclonal antibody 2810 were assessed for their capacity to bind to CD138 on the surface of cells. Briefly, the humanized variants of antibody 2810 were produced in HEK 293 cells following transient transfection. The antibodies were then serially diluted three-fold. Antibody binding to membrane CD138 was evaluated using the CD138+ human lymphoblastic myeloma cell line U266 and quantified by flow cytometry. Antibody cell binding was reported as geometric mean fluorescence intensity (MFI). Binding data were plotted using nonlinear regression analysis and a 4-parameter curve fit.
Antibody cell binding was reported as geometric mean fluorescence intensity (MFI). Binding data were plotted using nonlinear regression analysis and a 4-parameter curve fit.
Background: Flow cytometry measures light scatter and fluorescence of single cells or particles in a stream.

Data set [2] relates to CD138+ MM1.S cells. In words: Luciferase-based ADCC reporter assay against MM1.S. In kind it is cell-based, human. To be noted: 3-fold dilutions from 10 μg/mL, E:T 10:1, 16 h, FIG. 4. Here is the method:
(§2) In another experiment, the ADCC activity of the humanized variants of anti-CD138 antibody 2810 was assessed. Briefly, the humanized variant antibodies were produced by transient transfection of HEK 293 cells metabolically altered for purposes of reduced Fc fucosylation. The antibodies were then evaluated for antibody dependent cellular cytotoxicity (ADCC) activity against CD138^+ human lymphoblastic myeloma U266 cells in a luciferase based ADCC reporter assay using, as effector cells, engineered Jurkat cells stably transfected with the human FcγRIIIa receptor. U266 cells were incubated with mAbs that were 3-fold serially diluted from a starting concentration of 3 μg/mL and added to effector cells and CD138+U266 multiple myeloma target cells at a cell ratio of effector:target of 10:1. After 16-hour incubation at 37° C., luciferase activity was assessed as a measure of ADCC activity and reported as relative luminescence units (RLU). […]
(§3) Second, humanized anti-CD138 antibody variants 3821, 4321, 4320, 4521, 4326, and 3820 were assessed for ADCC activity against U266, MM1.S, LP-1, and RPMI 8226 CD138^+ multiple myeloma cell lines using a luciferase based ADCC reporter assay, as described in Example 15. […] After a 16 hour incubation at 37° C., cellular luciferase levels were quantified as a measure of ADCC activity and reported as relative luminescence units (RLU).
For orientation: Reporter assays use an easily measured gene product as a stand-in for the process of interest.

A further data set concerns CD138+ RPMI 8226 cells. In words: Luciferase-based ADCC reporter assay against RPMI 8226. It is filed as cell-based, human. The settings on record: 3-fold dilutions from 10 μg/mL, E:T 10:1, 16 h, FIG. 4. Here is the method: as §2, §3
In data set [3] the test system is CD138+ MM1.S cells. In words: Antibody binding to MM1.S cells by flow cytometry. Also noted: species or system human. The settings on record: FIG. 3. The method, then:
as §1
First, humanized anti-CD138 antibody variants 3821, 4321, 4320, 4521, 4326, and 3820 were evaluated for binding to three different CD138+ multiple myeloma related cell lines: MM1.S, LP-1, and RPMI 8226. Antibody binding was measured by flow cytometry as described in Example 15.

Data set [4] concerns the target T2, CD138 on MM1.S (luc) cells (Homo sapiens, UniProt P18827).
T2 construct: endogenous in cells; host or cells: MM1.S (luc) human multiple myeloma cell line (luciferase-expressing)
T2 sequence (P18827 23-310): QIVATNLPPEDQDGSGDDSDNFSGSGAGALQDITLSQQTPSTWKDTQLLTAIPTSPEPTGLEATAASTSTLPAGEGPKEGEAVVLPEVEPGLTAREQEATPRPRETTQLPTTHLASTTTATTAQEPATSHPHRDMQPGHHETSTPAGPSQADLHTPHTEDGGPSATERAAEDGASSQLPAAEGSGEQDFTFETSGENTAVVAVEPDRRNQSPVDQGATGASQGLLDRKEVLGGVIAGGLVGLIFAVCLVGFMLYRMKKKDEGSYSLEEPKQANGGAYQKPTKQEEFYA
In words: mAb 4320/CD138 binding assay on MM1.S (luc) cells by flow cytometry.

A further data set deals with CD138+ LP-1 cells. In words: Luciferase-based ADCC reporter assay against LP-1. It is filed as cell-based, human. The settings on record: 3-fold dilutions from 10 μg/mL, E:T 10:1, 16 h, FIG. 4. Here is the method:
as §2, §3

For a further data set, the system named is MM1.S (Luc) cells. In words: MM.1S Luc xenograft multiple myeloma model in C.B-17 SCID mice, dose escalation (Example 7). In kind it is in vivo.
The test system of data set [5] is CD138+ human lymphoblastic myeloma U266 cells. In words: Luciferase-based ADCC reporter bioassay (Jurkat FcγRIIIa effector cells) against U266. In kind it is cell-based. To be noted: 3-fold dilutions from 10 μg/mL, E:T 10:1, 16 h, FIG. 4. Here is the method: as §2
Second, humanized anti-CD138 antibody variants 3821, 4321, 4320, 4521, 4326, and 3820 were assessed for ADCC activity against U266, MM1.S, LP-1, and RPMI 8226 CD138^+ multiple myeloma cell lines using a luciferase based ADCC reporter assay, as described in Example 15. […] After a 16 hour incubation at 37° C., cellular luciferase levels were quantified as a measure of ADCC activity and reported as relative luminescence units (RLU). […]

Data set [6] relates to autologously-derived myeloma cells. In words: Killing of autologously-derived myeloma cells from relapsed/refractory patients. In kind it is cell-based, human.
The target in the next data set is T3, human CD138 peptide 2A (Homo sapiens, UniProt P18827).
T3 construct: Pep2a; 88-121; 10; 34
T3 sequence (P18827 88-121 limits assumed): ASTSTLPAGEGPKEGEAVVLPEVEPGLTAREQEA
In words: Antigen capture ELISA, binding to CD138 peptide 2A. The settings on record: FIG. 10. The method, then:
1 or select human CD138 derived peptides (Table 3) was evaluated by antigen capture ELISA. In brief, MaxiSorp™ plates were first coated with antibodies 4320 or BB4 at a 0.5 μg/ml concentration overnight (12-15 hours) at 2-8° C. The immobilized monoclonal antibodies were tested for binding to biotinylated recombinant CD138 extracellular domain or peptides 2A, peptide 6A in 5-fold serial antigen dilutions starting at starting at a 50 nM concentration. HRP-conjugated Anti-biotin secondary antibody (1:10000 dilution) was used for detection.
A general note: In an ELISA, binding on a coated surface is turned into a signal by an enzyme label.

B1: mAb 4320: humanized anti-CD138 IgG1 kappa antibody; VH SEQ ID NO: 471, VL SEQ ID NO: 475; HC SEQ ID NO: 527, LC SEQ ID NO: 528 (antibody)
heavy: QVQLVQSGAEVKKPGASVKVSCKASGYSFSSYYMHWVRQAPGQGLEWMGTIHPSDSTTNYNQKFQGRVTMTVDTSTRTAYMELSSLRSEDTAVYYCANFVYWGQGTTVTVSSASTKGPSVFPLAPSSKSTSGGTAALGCLVKDYFPEPVTVSWNSGALTSGVHTFPAVLQSSGLYSLSSVVTVPSSSLGTQTYICNVNHKPSNTKVDKRV[human IgG1 Fc not spelt out]
light: DIVMTQTPLSLSVTPGQPASISCKSSKSLLYKDGKTYLNWFLQKPGQSPQLLIYVVSTRASGVPDRFSGSGSGTDFTLKISRVEAEDVGVYYCQQLVEYPYTFGQGTKLEIKRTVAAPSVFIFPPSDEQLKSGTASVVCLLNNFYPREAKVQWKVDNALQSGNSQESVTEQDSKDSTYSLSSTLTLSKADYEKHKVYACEVTHQGLSSPVTKSFNRGEC
As to B1, in the data set with CD138+ myeloma cells, the “Binding to CD138+ myeloma cells” value is given as “sub-nanomolar”. Further, the “Antibody cell binding (MFI)” value in [1] was “dose-dependent binding”. Further, the “ADCC activity (RLU)” value (with CD138+ MM1.S cells [2]; in the data set on CD138+ RPMI 8226 cells; in the data set with CD138+ LP-1 cells; in data set [5]) was “induced ADCC activity” in each case. The “Antibody binding by flow cytometry” value in the data set on CD138+ MM1.S cells [3] is given as “dose-dependent binding”. Moreover, the “Live cells staining positive for mAb 4320” value in data set [4] (MM1.S (luc), 2.5 μg/mL) is given as “greater than 96%”. In addition, in [4] (at 2.5 μg/mL), the “Binding to MM1.S (luc) cells” value was “robust and saturable binding”. Also, the “Trend in mean body weight” value in the data set with MM1.S (Luc) cells (4 mg/kg mAb 4320) is on record as “upward trend in mean body weight”. In addition, in the data set with MM1.S (Luc) cells (FIG. 16), the “Mean body weight change” value was < 10%. Further, in the data set on MM1.S (Luc) cells (day 35, vs vehicle control), the “Median % T/C (whole body BLI)” value is reported as 3.4-5.1%. The “Increased median lifespan in comparison to control group” value in the data set on MM1.S (Luc) cells (e.g. 4 mg/kg dosing cohort, FIG. 15) is ≥ 20%. The “Dose response of efficacy (whole body or hind limb/spine signal)” value in the data set on MM1.S (Luc) cells (mAb 4320 4, 8, 16 mg/kg) is “did not produce a clearly differentiated dose response”. For the same molecule, the Tolerability result with MM1.S (Luc) cells (mAb 4320 4-16 mg/kg i.p. twice weekly) is on record as “well tolerated”. For the same molecule, the “Animal deaths in treatment groups” value in the data set with MM1.S (Luc) cells (mouse, in vivo) is recorded as “No animal deaths”. The “Killing of patient-derived myeloma cells” value in [6] is recorded as “effectively kills”. Moreover, the “Binding to peptide 2A” value with human CD138 peptide 2A is “substantially higher affinity than to 6A”.
